This note sets out measurements from US8669255B2, “Substituted octahydropyrrolo[1,2-a]pyrazines as calcium channel blockers” (AbbVie Inc., priority 2011, dated 2014).

A value given as a limit tells only on which side of the number the result lay.

The target of this assay is human Cav2.2 (Homo sapiens, UniProt Q00975). Description: In vitro assessment of calcium channel activity using FLIPR (Ca2+ influx in IMR32 cells). It is filed as cell-based. Conditions: IMR32 cells endogenously expressing human Cav2.2; 60 minute pre-incubation; 2 μM nifedipine; depolarized with 80 mM KCl; average of at least two runs unless marked (*).
For orientation: IC50 means the concentration at which inhibition is half-maximal. For the compound `O=S(=O)(N[C@H]1C[C@H]2CNCCN2C1)c1cccc(C(F)(F)F)c1` [Example 42, N-[(7S,8aS)-octahydropyrrolo[1,2-a]pyrazin-7-yl]-3-(trifluoromethyl)-benzenesulfonamide], the IC50 was 16.4 µM. The value for `O=C(c1ccc(F)cc1)N1CCN2C[C@@H](NS(=O)(=O)c3cccc(C(F)(F)F)c3)C[C@H]2C1` [Example 43, N-[(7S,8aS)-2-(4-fluorobenzoyl)octahydropyrrolo[1,2-a]pyrazin-7-yl]-3-(trifluoromethyl)benzenesulfonamide] was 4.86 µM; that for `O=C(c1ccc(C(F)(F)F)cc1)N1CCN2C[C@@H](NS(=O)(=O)c3cccc(C(F)(F)F)c3)C[C@H]2C1` [Example 44, 3-(trifluoromethyl)-N-{(7S,8aS)-2-[4-(trifluoromethyl)benzoyl]-octahydropyrrolo[1,2-a]pyrazin-7-yl}benzenesulfonamide] was 0.91 µM. The same measure for `CC(C)N1CCN2C[C@@H](NS(=O)(=O)c3cccc(C(F)(F)F)c3)C[C@H]2C1` [Example 45, N-[(7S,8aS)-2-isopropyloctahydropyrrolo[1,2-a]pyrazin-7-yl]-3-(trifluoromethyl)benzenesulfonamide]: 6.71 µM.

As to `O=S(=O)(N[C@H]1C[C@H]2CN(Cc3cccc(C(F)(F)F)c3)CCN2C1)c1cccc(C(F)(F)F)c1` [Example 46, 3-(trifluoromethyl)-N-{(7S,8aS)-2-[3-(trifluoromethyl)benzyl]-octahydropyrrolo[1,2-a]pyrazin-7-yl}benzenesulfonamide], the IC50 came to 0.94 µM.

Take `CCC(CC)CN1CCN2C[C@@H](NS(=O)(=O)c3cccc(C(F)(F)F)c3)C[C@H]2C1` [Example 47, N-[(7S,8aS)-2-(2-ethylbutyl)octahydropyrrolo[1,2-a]pyrazin-7-yl]-3-(trifluoromethyl)benzenesulfonamide]: the IC50 was 0.29 µM. In the case of `O=S(=O)(N[C@H]1C[C@H]2CN(Cc3cccc(Cl)c3)CCN2C1)c1cccc(C(F)(F)F)c1` [Example 48, N-[(7S,8aS)-2-(3-chlorobenzyl)octahydropyrrolo[1,2-a]pyrazin-7-yl]-3-(trifluoromethyl)benzenesulfonamide], the IC50 came to 0.6 µM. The value for `Cc1cccc(CN2CCN3C[C@@H](NS(=O)(=O)c4cccc(C(F)(F)F)c4)C[C@H]3C2)c1` [Example 49, N-[(7S,8aS)-2-(3-methylbenzyl)octahydropyrrolo[1,2-a]pyrazin-7-yl]-3-(trifluoromethyl)benzenesulfonamide] was 0.38 µM; that for `O=S(=O)(N[C@H]1C[C@H]2CN(Cc3cc(Cl)cc(Cl)c3)CCN2C1)c1cccc(C(F)(F)F)c1` [Example 50, N-[(7S,8aS)-2-(3,5-dichlorobenzyl)octahydropyrrolo[1,2-a]pyrazin-7-yl]-3-(trifluoromethyl)benzenesulfonamide] was 0.89 µM; that for `CC(C)(C)OC(=O)N1CCN2C[C@@H](NS(=O)(=O)Cc3ccc(Cl)cc3)C[C@H]2C1` [Example 51, tert-butyl (7S,8aS)-7-{[(4-chlorobenzyl)sulfonyl]amino}hexahydro-pyrrolo[1,2-a]pyrazine-2(1H)-carboxylate] was 2.53 µM. The value for `CCC(CC)C(=O)N1CCN2C[C@@H](NS(=O)(=O)Cc3ccc(Cl)cc3)C[C@H]2C1` [Example 52, 1-(4-chlorophenyl)-N-[(7S,8aS)-2-(2-ethylbutanoyl)octahydropyrrolo[1,2-a]pyrazin-7-yl]methanesulfonamide] was 11 µM. The value for `CCC(CC)CN1CCN2C[C@@H](NS(=O)(=O)Cc3ccc(Cl)cc3)C[C@H]2C1` [Example 53, 1-(4-chlorophenyl)-N-[(7S,8aS)-2-(2-ethylbutyl)octahydropyrrolo[1,2-a]-pyrazin-7-yl]methanesulfonamide] was 1.66 µM; that for `O=C(c1ccc(F)c(C(F)(F)F)c1)N1CCN2C[C@H](Oc3cnc(C4CC4)cn3)C[C@H]2C1` [Example 55, [(7R,8aS)-7-[(5-cyclopropylpyrazin-2-yl)oxy]hexahydropyrrolo[1,2-a]-pyrazin-2(1H)-yl][4-fluoro-3-(trifluoromethyl)phenyl]methanone] was 2.96 µM. Regarding `CC(C)(C)OC(=O)N1CCN2C[C@H](Oc3ccc(Cl)cn3)C[C@H]2C1` [Example 56, tert-butyl (7R,8aS)-7-[(5-chloropyridin-2-yl)oxy]hexahydropyrrolo[1,2-a]-pyrazine-2(1H)-carboxylate], the IC50 came out at 5.71 µM.

As for `Clc1ccc(O[C@@H]2C[C@H]3CNCCN3C2)nc1` [Example 57, (7R,8aS)-7-[(5-chloropyridin-2-yl)oxy]octahydropyrrolo[1,2-a]pyrazine], the IC50 was over 30 µM.

Turning to `CC(C)(C)OC(=O)N1CCN2C[C@H](Oc3cccc(C(F)(F)F)n3)C[C@H]2C1` [Example 58A, tert-butyl (7R,8aS)-7-{[6-(trifluoromethyl)pyridin-2-yl]oxy}hexahydro-pyrrolo[1,2-a]pyrazine-2(1H)-carboxylate], the IC50 turned out to be 2.61 µM. As to `O=C(CCC(F)(F)F)N1CCN2C[C@H](Oc3cccc(C(F)(F)F)n3)C[C@H]2C1` [Example 59, 4,4,4-trifluoro-1-[(7R,8aS)-7-{[6-(trifluoromethyl)pyridin-2-yl]oxy}-hexahydropyrrolo[1,2-a]pyrazin-2(1H)-yl]butan-1-one], the IC50 came to 6.78 µM. `O=C(CCCC(F)(F)F)N1CCN2C[C@H](Oc3cccc(C(F)(F)F)n3)C[C@H]2C1` [Example 60, 5,5,5-trifluoro-1-[(7R,8aS)-7-{[6-(trifluoromethyl)pyridin-2-yl]oxy}-hexahydropyrrolo[1,2-a]pyrazin-2(1H)-yl]pentan-1-one]: the 50% inhibitory concentration (IC50) turned out to be 3.02 µM. The same measure for `CC(C)(C)OC(=O)N1CCN2C[C@@H](Oc3ccc(Cl)cn3)C[C@H]2C1` [Example 62, tert-butyl (7S,8aS)-7-[(5-chloropyridin-2-yl)oxy]hexahydropyrrolo[1,2-a]-pyrazine-2(1H)-carboxylate]: over 30 µM; for `O=C(c1cccc(C(F)(F)F)c1)N1CCN2C[C@H](Oc3ccc(Cl)cn3)C[C@H]2C1` [Example 63, [(7R,8aS)-7-[(5-chloropyridin-2-yl)oxy]hexahydropyrrolo[1,2-a]pyrazin-2(1H)-yl][3-(trifluoromethyl)phenyl]methanone]: 1.1 µM; for `O=C(C1CCCCC1)N1CCN2C[C@H](Oc3ccc(Cl)cn3)C[C@H]2C1` [Example 64, [(7R,8aS)-7-[(5-chloropyridin-2-yl)oxy]hexahydropyrrolo[1,2-a]pyrazin-2(1H)-yl](cyclohexyl)methanone]: 5.68 µM. The value for `O=C(c1cccc(C(F)(F)F)c1)N1CCN2C[C@@H](Oc3ccc(Cl)cn3)C[C@@H]2C1` [Example 66, [(7S,8aR)-7-[(5-chloropyridin-2-yl)oxy]hexahydropyrrolo[1,2-a]pyrazin-2(1H)-yl][3-(trifluoromethyl)phenyl]methanone] was 5.55 µM. The same measure for `O=C(c1cccc(C(F)(F)F)c1)N1CCN2C[C@@H](Oc3cnc(C4CC4)cn3)C[C@@H]2C1` [Example 67, [(7S,8aR)-7-[(5-cyclopropylpyrazin-2-yl)oxy]hexahydropyrrolo[1,2-a]-pyrazin-2(1H)-yl][3-(trifluoromethyl)phenyl]methanone]: 5.61 µM.

For `O=C(c1cccc(C(F)(F)F)c1)N1CCN2C[C@H](Oc3cnc(C4CC4)cn3)C[C@H]2C1` [Example 68, [(7R,8aS)-7-[(5-cyclopropylpyrazin-2-yl)oxy]hexahydropyrrolo[1,2-a]-pyrazin-2(1H)-yl][3-(trifluoromethyl)phenyl]methanone], the IC50 turned out to be 2.71 µM. The value for `O=C(c1cc(F)cc(C(F)(F)F)c1)N1CCN2C[C@H](Oc3cnc(C4CC4)cn3)C[C@H]2C1` [Example 70, [(7R,8aS)-7-[(5-cyclopropylpyrazin-2-yl)oxy]hexahydropyrrolo[1,2-a]-pyrazin-2(1H)-yl][3-fluoro-5-(trifluoromethyl)phenyl]methanone] was 4.2 µM; that for `O=C(c1ccc(C(F)(F)F)cc1)N1CCN2C[C@H](Oc3cnc(C4CC4)cn3)C[C@H]2C1` [Example 71, [(7R,8aS)-7-[(5-cyclopropylpyrazin-2-yl)oxy]hexahydropyrrolo[1,2-a]-pyrazin-2(1H)-yl][4-(trifluoromethyl)phenyl]methanone] was 2.68 µM; that for `O=C(c1cc(C(F)(F)F)ccc1Cl)N1CCN2C[C@H](Oc3cnc(C4CC4)cn3)C[C@H]2C1` [Example 72, [2-chloro-5-(trifluoromethyl)phenyl][(7R,8aS)-7-[(5-cyclopropylpyrazin-2-yl)oxy]hexahydropyrrolo[1,2-a]pyrazin-2(1H)-yl]methanone] was 1.91 µM. The value for `O=C(c1cc(F)c(Cl)cc1F)N1CCN2C[C@H](Oc3cnc(C4CC4)cn3)C[C@H]2C1` [Example 73, (4-chloro-2,5-difluorophenyl)[(7R,8aS)-7-[(5-cyclopropylpyrazin-2-yl)-oxy]hexahydropyrrolo[1,2-a]pyrazin-2(1H)-yl]methanone] was 2.1 µM; that for `O=C(c1cc(F)c(F)c(F)c1)N1CCN2C[C@H](Oc3cnc(C4CC4)cn3)C[C@H]2C1` [Example 74, [(7R,8aS)-7-[(5-cyclopropylpyrazin-2-yl)oxy]hexahydropyrrolo[1,2-a]-pyrazin-2(1H)-yl](3,4,5-trifluorophenyl)methanone] was 10.8 µM.

Take `O=C(c1ccccc1C(F)(F)F)N1CCN2C[C@H](Oc3cnc(C4CC4)cn3)C[C@H]2C1` [Example 75, [(7R,8aS)-7-[(5-cyclopropylpyrazin-2-yl)oxy]hexahydropyrrolo[1,2-a]-pyrazin-2(1H)-yl][2-(trifluoromethyl)phenyl]methanone]: the IC50 turned out to be 7.94 µM. The value for `O=C(c1c(F)cccc1C(F)(F)F)N1CCN2C[C@H](Oc3cnc(C4CC4)cn3)C[C@H]2C1` [Example 76, [(7R,8aS)-7-[(5-cyclopropylpyrazin-2-yl)oxy]hexahydropyrrolo[1,2-a]-pyrazin-2(1H)-yl][2-fluoro-6-(trifluoromethyl)phenyl]methanone] was 6.99 µM; that for `O=C(c1ccc(F)cc1C(F)(F)F)N1CCN2C[C@H](Oc3cnc(C4CC4)cn3)C[C@H]2C1` [Example 77, [(7R,8aS)-7-[(5-cyclopropylpyrazin-2-yl)oxy]hexahydropyrrolo[1,2-a]-pyrazin-2(1H)-yl][4-fluoro-2-(trifluoromethyl)phenyl]methanone] was 9.96 µM.
